Data published in the supplement of paper PMC10600219.
Where a name gives a salt, the structure may show the parent alone. The full ranking holds about 2,800 compounds; the median of “cell viability relative to vehicle” is about 0.98, and the lowest 2% start at about 0.45. The list shows a part of the results.

Test system: NCI-H2228 alectinib-DTP
Assay: cell viability relative to vehicle (fraction of vehicle); NCI-H2228 is an ALK-positive lung cancer line and DTP means drug-tolerant persister; higher = less growth inhibition
Conditions: 100 nM; treatment time 6 days
Procedure, shortened: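 Drug-tolerant persister NCI-H2228 cells, produced by 13 days in 1000 nM of a targeted drug, and their parental counterparts were seeded into 384-well plates and, the following day, given the 3114-agent TargetMol anti-cancer compound library at 100 nM or DMSO vehicle. After 6 days, the CellTiter-Glo 3D Cell Viability Assay was used to read ATP. Each entry reports viability compared with vehicle-treated cells.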

Compound | cell viability
Cc1cc(Nc2cc(CN3CCOCC3)c3nc(C)c(Cc4ccc(Cl)cc4F)n3n2)n[nH]1 [Gandotinib] | 0.982
CCOC(=O)N[C@@H]1CC[C@@H]2[C@@H](C1)C[C@H]1C(=O)O[C@H](C)[C@H]1[C@H]2/C=C/c1ccc(-c2cccc(F)c2)cn1 [Vorapaxar] | 0.98
CCOC(=O)N[C@@H]1CC[C@@H]2[C@@H](C1)C[C@H]1C(=O)O[C@H](C)[C@H]1[C@H]2/C=C/c1ccc(-c2cccc(F)c2)cn1 [Vorapaxar sulfate] | 1.03
Nc1nnc(-c2cccc(Cl)c2Cl)c(N)n1 [Lamotrigine] | 1.06
NC(=O)c1cnc(-c2ccc(C3(N)CCC3)cc2)c(-c2ccccc2)c1 | 0.932
CC(=O)O[C@]1(C(C)=O)CC[C@H]2[C@@H]3C=C(C)C4=CC(=O)CC[C@]4(C)[C@H]3CC[C@@]21C [Megestrol acetate] | 0.881
CN(C)C(=O)c1cc2cnc(Nc3ccc(N4CCNCC4)cn3)nc2n1C1CCCC1 [Ribociclib] | 0.94
CN1CCN(c2ccc(Nc3cc(-c4cccc(-n5ccc6cc(C7CC7)cc(F)c6c5=O)c4CO)cn(C)c3=O)nc2)CC1 | 1.01
CC(C)Cc1ccc([C@@H](C)C(=O)NS(C)(=O)=O)cc1 [Repertaxin] | 1.1
COc1ccc2c(c1)c(CC(=O)OCC(=O)O)c(C)n2C(=O)c1ccc(Cl)cc1 [Acemetacin] | 0.994
COc1cc(C2Oc3ccc(C4Oc5cc(O)cc(O)c5C(=O)C4O)cc3OC2CO)ccc1O (configuration not stated) [Isosilybin] | 1.01
CC(=O)NC[C@H]1CN(c2ccc(N3CCOCC3)c(F)c2)C(=O)O1 [Linezolid] | 1.11
Cc1nccn1CC1CCc2c(c3ccccc3n2C)C1=O (configuration not stated) [Ondansetron hydrochloride] | 0.846
Cn1sc(=O)n(Cc2ccccc2)c1=O | 0.987
Nc1ncnc2c1ncn2[C@@H]1O[C@H](CO)C[C@H]1O [Cordycepin] | 0.963
COc1ccc2cc3[n+](cc2c1OC)CCc1cc2c(cc1-3)OCO2 [Berberine] | 1.09
CC[C@H](C)[C@@H]1NC(=O)[C@@H]2CCCN2C(=O)[C@@H]2CCCN2C(=O)[C@@H]2CCCN2C(=O)[C@H](CC(C)C)NC(=O)CNC(=O)CNC(=O)[C@H](Cc2ccccc2)NC1=O [Heterophyllin B] | 1.02
Cc1cc([N+](=O)[O-])c(NS(=O)(=O)c2cccc(C(=O)O)c2)cc1-c1cccnc1 [Alofanib] | 0.978
Cc1ccc(S(=O)(=O)/C=C/C#N)cc1 | 1.07
COc1cc(-c2cc(-c3ccc(N4CCNCC4)cc3)cnc2C)cc(OC)c1OC | 1.15
C[C@H](CCC(=O)NCCS(=O)(=O)O)[C@H]1CC[C@H]2[C@@H]3[C@H](O)C[C@@H]4C[C@H](O)CC[C@]4(C)[C@H]3C[C@H](O)[C@]12C [Taurocholic acid sodium salt hydrate] | 1.04
Nc1ccccc1NC(=O)c1ccc(CNc2nccc(-c3cccnc3)n2)cc1 [Mocetinostat] | 0.667
Cn1nc(-c2ccc(C(F)(F)F)cc2)nc2c(=O)n(C)c(=O)nc1-2 [Walrycin B] | 0.741
CC(C)(C)NCC(O)COc1cccc2c1CC(O)C(O)C2 (configuration not stated) [Nadolol] | 0.951

Compound | cell viability
CC1=C(C(=O)O)N2C(=O)[C@@H](NC(=O)[C@H](N)c3ccccc3)[C@H]2SC1 [Cephalexin] | 1.21
CC[C@H](C)C(=O)O[C@H]1C[C@H](O)C=C2C=C[C@H](C)[C@H](CC[C@@H](O)C[C@@H](O)CC(=O)O)[C@H]21 [Pravastatin sodium] | 1.02
Cc1cccn2c(=O)c(-c3nnn[nH]3)cnc12 [Pemirolast potassium] | 0.847
CCOCCn1c(N2CCCN(C)CC2)nc2ccccc21 [Emedastine] | 1.02
COc1cc(C(=O)OCCCCNC(=N)N)cc(OC)c1O [Leonurine hydrochloride] | 1.08
C[C@H]1O[C@H](O[C@@H]2[C@@H](O)[C@H](OCCc3ccc(O)c(O)c3)O[C@H](CO[C@H]3OCC(O)(CO)[C@@H]3O)[C@H]2OC(=O)/C=C/c2ccc(O)c(O)c2)[C@@H](O)[C@@H](O)[C@@H]1O (some centres not stated) [Forsythoside B] | 0.906
Cc1cc(Nc2ncc(Cl)c(Nc3ccccc3S(=O)(=O)C(C)C)n2)c(OC(C)C)cc1C1CCNCC1 | 0.896
CCNC(=O)Nc1ccc(-c2nc(N3CCOC[C@@H]3C)c3c(n2)C(C)(C)S(=O)(=O)C3)cc1 | 0.508
N[C@@H](CCNCc1ccc(Cl)cc1)C(=O)N1CCCCC1 | 1.18
C[C@@H](Oc1cc(-c2cnn(C3CCNCC3)c2)cnc1N)c1c(Cl)ccc(F)c1Cl [Crizotinib] | 0.962
Nc1ncc(-c2ccnc(Nc3ccncc3)n2)c(CC2CC2)n1 | 0.996
CC(Cc1ccc(O)c(O)c1)C(C)Cc1ccc(O)c(O)c1 (configuration not stated) [Nordihydroguaiaretic acid] | 1.08
CC/C=C\CC1C(=O)CCC1CC(=O)OC (racemic) [(±)-Methyl Jasmonate] | 0.91
Cc1c(CN2CCN(S(C)(=O)=O)CC2)sc2c(N3CCOCC3)nc(-c3cnc(N)nc3)nc12 | 0.514
CC(C)(O)CNc1nc(Nc2ccnc(C(F)(F)F)c2)nc(-c2cccc(C(F)(F)F)n2)n1 [Enasidenib] | 0.96
CNCC[C@@H](Oc1ccccc1C)c1ccccc1 [Atomoxetine hydrochloride] | 0.876
CC(C)(C)c1cc(NC(=O)Nc2ccc(Oc3ccnc4[nH]c(=O)cnc34)cc2F)n(-c2ccccc2)n1 | 1.12
C=CC(=O)Nc1cccc(Oc2nc(Nc3ccc(N4CCN(C)CC4)c(F)c3)nc3[nH]ccc23)c1 [Avitinib] | 0.747
O=C(Nc1ccc2[nH]nc(-c3ccncc3)c2c1)[C@@H]1CCN(CC(=O)N2CCN(c3ccc(-c4ncccn4)cc3)CC2)C1 | 0.831
C=C1CCC[C@]2(C)C[C@]3(O)OC(=O)C(C)=C3C[C@@H]12 [Atractylenolide III] | 0.995
CCCCC1C(=O)N(c2ccccc2)N(c2ccccc2)C1=O [Phenylbutazone] | 0.919
O=c1cc(N2CCOCC2)oc2c(-c3ccc4c(c3)OCCO4)csc12 | 0.999
COc1cc2ncnc(Nc3ccc(F)c(Cl)c3)c2cc1NC(=O)/C=C/CN1CCCCC1 [Dacomitinib] | 0.767
CC(=O)Oc1cc(C)c(OC(C)=O)c2ccccc12 [Menadiol Diacetate] | 1.11

Compound | cell viability
Cc1ccc(C(=O)N(CCCN)[C@@H](c2nc3cc(Cl)ccc3c(=O)n2Cc2ccccc2)C(C)C)cc1 [Ispinesib] | 0.777
CC(=O)/N=c1/sc(S(N)(=O)=O)nn1C [Methazolamide] | 0.815
CC1=CC(=O)c2ccccc2C1=O [Menadione] | 1.12
COCCCOc1cc(C[C@@H](C[C@H](N)[C@@H](O)C[C@H](C(=O)NCC(C)(C)C(N)=O)C(C)C)C(C)C)ccc1OC [Aliskiren hemifumarate] | 0.972
CC(C)(C)C1CCc2c(sc(NC(=O)c3ccco3)c2C(=O)O)C1 (configuration not stated) | 1.09
CCCc1nc2c(C)cc(-c3nc4ccccc4n3C)cc2n1Cc1ccc(-c2ccccc2C(=O)O)cc1 [Telmisartan] | 0.867
CCCCCC=CC(=O)CCc1ccc(O)c(OC)c1 [6-Shogaol] | 1.07
CCCC(=O)Nc1ccc(OCC(O)CNC(C)C)c(C(C)=O)c1 (configuration not stated) [Acebutolol hydrochloride] | 1.09
Cc1nn(C)c(COc2ccc(N3CCN(S(=O)(=O)N(C)C)CC3)cc2)c1-c1cccc2c(CCCOc3cccc4ccccc34)c(C(=O)O)n(CCN3CCOCC3)c12 | 0.959
C=C[C@H]1[C@H](O[C@@H]2O[C@H](CO)[C@@H](O)[C@H](O)[C@H]2O)OC=C2C(=O)OCC[C@]21O [Swertiamarin] | 0.944
C[C@@H]1O[C@@H](OC[C@H]2O[C@@H](Oc3c(-c4ccc(O)c(O)c4)oc4cc(O)cc(O)c4c3=O)[C@H](O)[C@@H](O)[C@@H]2O)[C@H](O)[C@H](O)[C@H]1O [Rutin] | 0.922
NC(=O)Nc1sc(-c2ccc(F)cc2)cc1C(N)=O | 1.03
CC1(C)C(=O)N(CCN2CCC(C(=O)c3ccc(F)cc3)CC2)c2ccccc21 | 0.827
CCCOc1ccc(/C=C2\SC(=O)NC2=O)cc1 | 1.01
N=C(N)c1ccc(N=NNc2ccc(C(=N)N)cc2)cc1 [Diminazene Aceturate] | 1.05
C[C@H](CCC(=O)O)[C@H]1CC[C@H]2[C@@H]3C[C@H](O)[C@@H]4C[C@H](O)CC[C@]4(C)[C@H]3CC[C@]12C [Hyodeoxycholic acid] | 1.02
O=C(NCc1ccc2c(c1)OCO2)c1c(Cl)cccc1Cl | 0.937
Nc1ccccc1NC(=O)CCCCCCC(=O)Nc1ccccc1 | 0.956
Cn1cc(C2=C(c3cn(CCCSC(=N)N)c4ccccc34)C(=O)NC2=O)c2ccccc21 [Ro 31-8220 Mesylate] | 0.865
C[C@@H]1O[C@@H](O[C@H]2[C@H](Oc3cc(O)c4c(c3)O[C@H](c3ccc(O)cc3)CC4=O)O[C@H](CO)[C@@H](O)[C@@H]2O)[C@H](O)[C@H](O)[C@H]1O [Naringin] | 1.15
COc1ccc(CCc2cc(OC)c(OC)c(OC)c2)cc1O [Erianin] | 0.697
O=P(O)(O)O[C@H]1[C@H](OP(=O)(O)O)[C@@H](OP(=O)(O)O)[C@H](OP(=O)(O)O)[C@@H](OP(=O)(O)O)[C@H]1OP(=O)(O)O [Phytic acid] | 1.13
NS(=O)(=O)Oc1ccc2c3c(c(=O)oc2c1)CCCCC3 [Irosustat] | 0.927
Cc1nc(N(C)C(=O)Cc2ccc(-c3ccccn3)cc2)sc1S(N)(=O)=O [Pritelivir] | 0.849
